Experimental data taken from the supplement of paper PMC10126150.
Values marked as one replicate rest on one cluster of the flow cell; about a third of the high ones do not repeat.

tested on: ATP; assay: switch fluorescence ratio, 500 uM ATP over buffer (Cy3 cluster intensity, sum of 5 cycles each) (fold (ratio)); higher = stronger signal-on switching upon ATP binding; sequences stand for … in TCGTCGGCAGCGTCAGATGTGTATAAGAGACAGTTTTTTTTTTTTTTTTTTTTTTTTT…TC; settings: aptamer strand: ATP DNA aptamer (quencher-CACCTGGGGGAGTATTGCGGAGGAAGG + anchor), 100 nM annealed; ATP concentration: 500 uM; one replicate
Procedure, shortened: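 Switching-strand clusters labelled with Cy3 on a modified Illumina MiSeq flow-cell were annealed to 100 nM quencher-labelled ATP aptamer, imaged in selection buffer, and re-imaged after 15 min with 500 uM ATP at 22 °C. This was done over five cycles with NaOH stripping and re-annealing in between. The fluorescence ratio is summed target-cycle over summed buffer-cycle Cy3 intensity per cluster, averaged per switch-domain sequence, excluding clusters outside 100-1000 RFU.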
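Further: ATP exposure 15 min at 22 °C before imaging.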

Row | Sequence | switch fluorescence ratio
1 | GCAGCATGTA | 1.1
2 | AAGGCTAT | 1
3 | CCCTTGCGCG | 1.01
4 | CGTGGGGCCA | 0.947
5 | CGTTTATTTC | 0.996
6 | AAGGGAGTTG | 1.01
7 | ACGTTAATGT | 1.1
8 | CGATGATTG | 0.986
9 | GCTTCCCGGA | 1.03
10 | GGCCACGCGA | 1.13
11 | AATCTATAC | 1.12
12 | GGATGAGACG | 1.07
13 | ACACGTAGG | 1.05
14 | GACCCAAAGA | 1.17
15 | TCACGACAGA | 1.13
16 | ATGGGTACTT | 1.01
17 | CCTTTTTTG | 1.05
18 | CGCAAAGTGC | 2.63
19 | GTTATGTAGC | 1.05
20 | TCATATCAGA | 1.01
21 | GCGCCACTTC | 1.03
22 | CTGGATTTTC | 1
23 | GTCGGAGGTG | 0.948

Row | Sequence | switch fluorescence ratio
24 | GAACGGATGG | 0.979
25 | TAAAAGTGTG | 1.38
26 | TGCGGGTATC | 0.998
27 | GGCTACAGTA | 1.11
28 | ATATTGTAG | 0.989
29 | GTTGAGAGGG | 0.969
30 | GGAATGATGG | 0.979
31 | AGTGCATAAT | 0.958
32 | ACGTTAGAA | 1.07
33 | GGAATTCGTA | 0.923
34 | TTGCTCCCTT | 1.03
35 | GCTCATCTAT | 1.01
36 | GAAGCGTCGG | 1.02
37 | TAACCAGCGG | 1.12
38 | TGCACGTGG | 0.968
39 | TCAGGTCGGG | 0.983
40 | TTTTGCGTGT | 1.03
41 | CGAATCATCT | 0.905
42 | TGTGGTTAAG | 1.04
43 | CACCCTGTAA | 1.03
44 | TCCAAGCGAG | 1.25
45 | GCAGACCTTT | 1.03
46 | AGGTCAGAAA | 0.97

Row | Sequence | switch fluorescence ratio
47 | TGATACGTGA | 1.03
48 | GGATGATCCT | 1.01
49 | CCGGCAACAA | 4.46
50 | ACCCGTTGAA | 1.03
51 | TGGGCGATT | 1.01
52 | CGCGCAAGTC | 3.57
53 | ATAACCGAGA | 1.07
54 | GACTGGGGAA | 1.02
55 | ACGGGCATAT | 1.22
56 | ATCAGTTGCT | 1.01
57 | GGTCCCAGCC | 1.03
58 | CACAGCCCGA | 1.05
59 | CGTTGAGGGG | 0.909
60 | CACTTTATTC | 1.06
61 | AAAATGTGAG | 0.969
62 | GGAGTCTTTG | 1.04
63 | CTGGCATTCG | 1.06
64 | TAATACGATG | 1.02
65 | TTGGCATGCC | 1.01
66 | TTTAGAGCAG | 1.05
67 | GATAATGTGG | 1
68 | GAAAGCCCAA | 1.03
69 | AACGGTGTAA | 0.981

Row | Sequence | switch fluorescence ratio
70 | TAGAGTAAGG | 1.01
71 | CTTCAAAATT | 1.02
72 | CCTTGGGTGA | 1.22
73 | GCAGAAATCT | 1.07
74 | GGGTGCCA | 1.01
75 | GCAATAGAAG | 1.07
76 | CCAATTATAG | 1.06
77 | GAGTATTGTG | 0.99
78 | CTTCTTTTC | 1
79 | TGAATCATTC | 1.01
80 | CGTCATATCG | 0.983
81 | TCATGATTA | 1.01
82 | ACGTTGTATT | 1.01
83 | TGGTAATAAA | 1.04
84 | TAACGTTAAG | 1.04
85 | AAGTGACTTT | 0.951
86 | CATGGAGGGT | 0.976
87 | AAAGGATGCC | 0.993
88 | CGAACACTCG | 1.11
89 | TTATTGGATT | 1.06
90 | ACTCACTGAA | 1.2
91 | AGCTTAGGAT | 1.04
92 | CAAAGATGTA | 0.948

Row | Sequence | switch fluorescence ratio
93 | ATTTCAACAC | 1.1
94 | CCCTGTCTGC | 1.03
95 | TGGCTTCGTA | 0.981
96 | GAGCCCAAGG | 1.18
97 | CTTAACACTG | 0.998
98 | ACCTTTGAAT | 1.04
99 | TTACTCTACG | 1.37
100 | CGGACCTAAG | 0.969
101 | GAGTAGTCC | 0.943
102 | AACACTGGCA | 1.04
103 | ACGTTCTTGG | 1.03
104 | AATCCGAATT | 1.03
105 | ATCCGTGGCA | 1.04
106 | ACGGAACTTC | 1.29
107 | GCACAAAACG | 1.23
108 | GAAGGGTCCG | 0.904
109 | CGTGTCCTGT | 1
110 | TTTATATGG | 1.02
111 | GGCTGACTTG | 0.943
112 | TACCATTATC | 1.01
113 | AGCAATTACC | 4.79
114 | GATAGTAGTG | 1.02
115 | GGCGATCACA | 0.964

Row | Sequence | switch fluorescence ratio
116 | CTCCTCGAGT | 1.02
117 | CGTACCGCTC | 1.3
118 | GACGAAGCT | 1.08
119 | GTTGTCGGCT | 1.07
120 | CACCGTACTG | 1.58
121 | TTCATTATAG | 1.03
122 | AACTATACTA | 1.14
123 | ACTACGGGCT | 1.17
124 | AGAAAACGGG | 1.05
125 | AAAGCCTTGT | 0.95
126 | CCAACCCTTA | 1.03
127 | TGCCAGTTTT | 1
128 | ATTGCGATAA | 1.05
129 | GGTATCATGA | 0.962
130 | TTTTATCGTT | 1
131 | AAACAGAGCA | 1.04
132 | GGTTAAAGTG | 0.995
133 | TCTCTCAAAT | 1.03
134 | CGATAATTGG | 0.969
135 | ACCGTTAGTA | 1.01
136 | AAGAGTCGGT | 0.972
137 | TTTGCACAAT | 1.01
138 | AGGTACTGGA | 1.03

Row | Sequence | switch fluorescence ratio
139 | CATTGCGATG | 0.988
140 | TTCACTTCC | 2.17
141 | TTCATTCCA | 1.06
142 | GCGTGGTGCT | 1.03
143 | GTTGTGGGTC | 0.964
144 | GCGGACTGGG | 1.02
145 | TATTTTAAAT | 1.04
146 | CGTCTGTTGC | 1.1
147 | CGATTAATTG | 0.977
148 | ATGCAGGGTC | 0.99
149 | GAGCACGAAT | 1.03
150 | TTGTGAGAAC | 1.03
151 | GCAAAGCATG | 1.04
152 | AAGGTCTGC | 1.01
153 | CGCAGGAAGG | 0.956
154 | ATCGGTTCGA | 1.02
155 | TCCTAGCAT | 2.23
156 | GCTCAGTTTT | 0.966
157 | CGCCAGAGTG | 2.03
